Laboratory results published in PubChem BioAssay AID1745845 (National Center for Advancing Translational Sciences (NCATS), 2022).
“And” between values parts separate entries of the source, which are not always exact repeats. Equal values may be shown once. Screen size: about 360,000 compounds; about 2,600 (0.72%) were called active. This list was built around the results that the source calls inconclusive (neither active nor inactive); the mix of calls is not that of the screen. The call rests on the fitted dose curve; in most records, active means well fitted inhibition curve with a large enough effect; inconclusive means small, poorly fitted or top-dose-only effect; inactive means no such curve, though single readings can be large or run the other way. Where the call is inconclusive, the potency comes from a doubtful curve fit.

experiment: Primary qHTS for Inhibitors of ATXN expression; settings: HEK-293 ATXN2-luciferase reporter, luminescence, 24 h; activity change, negative = inhibition: at 57 µM (top of the series); further: nearly all actives have a fitted effect of over 55% in size
Method in brief: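 ATXN2-luciferase reporter cells (luciferase flanked by upstream and downstream ATXN2 gene portions) were treated 24 h at 37 °C with compounds at up to 57 uM. SteadyGlo luminescence gave expression; GF-AFC fluorescence gave viability.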
On the % scale 0 is the no-effect control and ±100 the full control effect; potency means the concentration at half of the fitted maximal effect; tags describe the fitted curve by direction and shape.

Potency, active:
Cc1ccccc1C(=O)/C(C#N)=N/Nc1c(C)n(C)n(-c2ccccc2)c1=O 7.08 µM
Cc1ccc(C(=O)Nc2cccc(C(F)(F)F)c2)cc1Nc1nc(-c2cccnc2)nc2c1cnn2C 24.3 µM
CCN1CCC(N(Cc2ccc(F)cc2)C(=O)Nc2cccc(C(F)(F)F)c2)CC1 28.2 µM
O=C(CN1CC(c2ccccc2)CC1=O)N/N=C/c1cc(Br)ccc1O (centres undefined) 14.1 µM
CCc1ccc2nc(N3CCC(C(=O)O)CC3)sc2c1 14.1 µM
Cc1ccc(C)c(N2CCN(C(=O)CCCCCn3c(=S)[nH]c4ccc(N5CCOCC5)cc4c3=O)CC2)c1 2.82 µM
COCCn1c(C)cc(C(=O)CSc2nnc(C)s2)c1C 5.01 µM

Potency, inconclusive:
Cc1cccc(N2CCN(C(=O)Cn3ncc4c3-c3ccccc3OC4)CC2)c1C 35.5 µM [inhibitor, single point]
NC(Cc1ccc(F)cc1)c1csc(Nc2ccc(C(F)(F)F)cn2)n1 (centres undefined) 31.6 µM [inhibitor, single point]
Cc1ccc2ncccc2c1NS(=O)(=O)c1ccccc1 39.8 µM [inhibitor, single point]
CCOc1cc2[nH]c(=S)n(Cc3ccc(C)o3)c(=O)c2cc1OCC 35.5 µM [inhibitor, single point]
C=CCn1c(C)cc(C(=O)CSc2nc3ccccc3[nH]2)c1C 17.8 µM [inhibitor, single point]
Cc1ccc(NC(=O)Cn2c(=O)oc3cc(S(=O)(=O)N4CCC(C)CC4)ccc32)cc1Cl 17.8 µM [inhibitor, partial curve, poor fit]
c1ccc2oc(C3=NNC(=NC4CC4)SC3)cc2c1 14.1 µM [inhibitor, partial curve, poor fit]
O=C(Nc1ccc(Br)cc1)c1cccc(OC(=S)N2CCOCC2)c1 14.1 µM [inhibitor, partial curve]
O=C1C(Cc2ccccc2)Nc2ncnc(N3CCc4ccccc4C3)c2N1Cc1ccc(Cl)cc1 (centres undefined) 39.8 µM [inhibitor, single point]
CCOC(=O)c1c(-c2ccc(-c3ccccc3)cc2)csc1NC(=O)c1cccc(N2C(=O)CCC2=O)c1 15.8 µM [inhibitor, partial curve, poor fit]
O=C(Nc1ccc(S(=O)(=O)N2CCCCC2)cc1)c1ccc(CN2CCOCC2)cc1 25.1 µM [inhibitor, partial curve, poor fit]
CC(C)(C)c1ccc(-n2ncc3c2CCCC3NC(=O)CN2CCOC2=O)cc1 (centres undefined) 14.1 µM [inhibitor, partial curve, poor fit]
Nc1nonc1-c1nc2ccccc2n1CC(=O)N/N=C\c1ccc(-c2ccc(Cl)cc2)o1 31.6 µM [inhibitor, partial curve, poor fit]
O=C(NC(c1ccc(Cl)cc1)c1ccsc1)C1CCN(Cc2cccc(Cl)c2)CC1 (centres undefined) 28.2 µM [inhibitor, single point]
O=[N+]([O-])c1ccc(Sc2ncccn2)c([N+](=O)[O-])c1 39.8 µM [inhibitor, single point]
Cc1ccc(-c2cc(C(=O)N3CCCC3)no2)cc1 12.6 µM [inhibitor, single point]
CCc1ccccc1Nc1nn2c(=O)c3ccc(C(=O)Nc4ccc(OC)cc4)cc3nc2s1 1.58 µM [inhibitor, full curve, poor fit]
O=C(N/N=C/c1cccc([N+](=O)[O-])c1)c1cc2c(ccc3ccccc32)o1 20 µM [inhibitor, partial curve, poor fit]
CCC(C(=O)N1CCN(c2cc(Cl)ccc2C)CC1)n1nc(C)n2c(cc3occc32)c1=O (centres undefined) 22.4 µM [inhibitor, partial curve, poor fit]
O=C(NC(=S)N1CCN(c2nc(-c3ccccc3)cs2)CC1)c1cncc(Br)c1 29.9 µM [inhibitor, partial curve, poor fit]
O=C(Nc1nc(-c2ccc(S(=O)(=O)N3CCOCC3)cc2)cs1)c1ccccc1 11.9 µM [inhibitor, partial curve] and 11.2 µM [inhibitor, partial curve]
CC(C)(C)c1nc(NC(=O)Nc2ccccc2)sc1Br 2.38 µM [inhibitor, partial curve, poor fit]
Cc1ccc2c(c1)sc(=NC(=O)c1cccs1)n2C 9.47 µM [inhibitor, single point]
NC(c1csc(Nc2ncccn2)n1)c1ccccc1Cl (centres undefined) 28.2 µM [inhibitor, single point]
CCCNC(=O)C1(C)CCN(Cc2ccc(Cl)c(Cl)c2)C1 (centres undefined) 17.8 µM [inhibitor, single point]
O=C(NCc1ccc2c(c1)OCO2)c1nc(S(=O)(=O)Cc2ccccc2)ncc1Cl 39.8 µM [inhibitor, single point]
CCN(CC)c1ccc(/C=N/Nc2nc(C)cc(C)n2)c(O)c1 14.1 µM [inhibitor, partial curve]
CCN(CC)C(=O)C1=C(C)N(Cc2ccc(C(C)(C)C)cc2)C(=O)C(CC(=O)NCC2CCCCC2)C1 (centres undefined) 39.8 µM [inhibitor, single point]
CC(C)(C)c1ccc(/C=N/NC(=O)c2ccccn2)cc1 18.9 µM [inhibitor, single point]
CC(C)Oc1cccc(C(=O)C2CCCN(Cc3cccn3-c3cccnc3)C2)c1 (centres undefined) 22.4 µM [inhibitor, single point]
CCNC(=O)NC(=O)C(C)OC(=O)CCCSc1nc2ccccc2s1 (centres undefined) 15.8 µM [inhibitor, partial curve, poor fit]
O=C(Nc1ccncc1)c1ccc(Cl)c(S(=O)(=O)N2CCCCC2)c1 15.8 µM [inhibitor, partial curve, poor fit]
CC(=O)c1cccc(NC(=O)c2nc(-c3ccc(C)cc3)n3c2CCCCC3)c1 17.8 µM [inhibitor, partial curve, poor fit]
CC1CCN(CCCNC(=O)c2cc3c(s2)-c2ccccc2OC3)CC1 17.8 µM [inhibitor, partial curve, poor fit]
CCOc1cc(/C=N/NC(=O)c2cc(-c3cccc(OC)c3)nc3ccccc23)ccc1O 35.5 µM [inhibitor, single point]
COc1ccc2sc(N(CCCN(C)C)C(=O)c3ccc(S(=O)(=O)N4CCc5ccccc5C4)cc3)nc2c1 35.5 µM [inhibitor, single point]

Potency, inactive:
CSCC[C@H](NC(=O)c1ccc(Cl)c(S(=O)(=O)N2CCCC2)c1)c1nc2ccccc2[nH]1
COc1ccc(CN2C3CCCC2CC(NC(=O)Nc2ccccc2)C3)cc1 (centres undefined)
CCCCNc1c(-c2ccc(-c3ccc(C(C)=O)cc3)c(OC)c2)nc2cnccn12
O=C(CC1CC2CCC1C2)NC1CCCCCCC1 (centres undefined)
O=C(c1cc2ccccc2o1)c1cccs1
C[C@H]1COC(=O)[C@@H](Cc2ccc(F)cc2)C/C=C\C[C@H](CC(=O)NCCO)C(=O)N1
O=C(NCC1OCCc2ccccc21)c1ccc(NC(=O)c2cccc(Br)c2)cc1 (centres undefined)
COc1ccc(/C=C(/CC(=O)NCc2ccc(Cl)cc2)c2nc3ccccc3s2)cc1
COc1ccc(CCNC(=O)CCc2c(C)c3cc4c(C)coc4cc3oc2=O)cc1
N#CC(C#N)=NNc1ccc(S(=O)(=O)N2CCCC2)cc1
COc1ccc(OC)c(NC(=S)NCc2ccc(S(N)(=O)=O)cc2)c1
CC(=O)Nc1cc(-c2ccccc2)nn1Cc1cccc(Cl)c1
COc1cc(-c2cn(S(=O)(=O)c3cccc4nsnc34)nc2N)cc(OC)c1OC
CN(C)CCN(C(=O)C1CCCCC1)c1nc2cc3c(cc2s1)OCO3
Cc1cccc(CN2C(=O)N/C(=C/c3cc(C)n(-c4ccccn4)c3C)C2=O)c1
CCCCNC(=O)CO/N=C(\C)c1cc2ccccc2o1
COc1cccc(-c2cnc3c(NC=O)cc(-c4ccoc4)cn23)c1
Cc1cc(S(=O)(=O)N2CCN(CC(=O)N(C)Cc3ccccc3)CC2)ccc1Br
CC(=O)c1ccc(-c2c(C)cc3oc(=O)cc(-c4ccccc4)c3c2C)cc1
O=C(CN1C(=O)NC(c2ccccc2)(c2ccccc2)C1=O)NCC(=O)Nc1ccc(F)cc1
CCCCCCN1C[C@@H](n2cc(COC(=O)c3ccccc3)nn2)[C@H](O)C[C@@H]1c1ccccc1
O=S(=O)(c1ccc(S(=O)(=O)N2CCCC2)cc1)N1CCCCCC1
O=C(NCc1cc(C(F)(F)F)ccc1Cl)c1cccc2c1C(=O)c1ccc(N3CCCCC3)cc1S2(=O)=O
O=C1NC(=S)S/C1=C\c1cc(Cl)ccc1Cl
CCn1c(C)nc2cc(S(=O)(=O)C(F)F)ccc21

Activity change, negative = inhibition, inconclusive:
CC1=NN(C(=O)c2ccccc2F)C(O)(c2ccc(Cl)cc2)C1 (centres undefined) -55.9% [inhibitor]
